{"source": "the supplement of paper PMC12217912", "parents": {"B1": {"name": "TEV protease; numbered along this chain (parent)", "chain": "MGESLFKGPRDYNPISSSICHLTNESDGHTTSLYGIGFGPFIITNKHLFRRNNGTLVVQSLHGVFKVKDTTTLQQHLVDGRDMIIIRMPKDFPPFPQKLKFREPQREERICLVTTNFQTKSMSSMVSDTSCTFPSGDGIFWKHWIQTKDGQCGSPLVSTRDGFIVGIHSASNFTNTNNYFTSVPKNFMELLTNQEAQQWVSGWRLNADSVLWGGHKVFMVKPEEPFQPVKEATQL"}}, "variants_of": "B1", "test": "raw area under fraction-flipped curve 0-4 h after induction (AUC4h, not background-subtracted), DNA-recorder readout of cleavage of the substrate (dimensionless); higher = more cleavage of the substrate by the protease variant", "details": "temperature: 34 °C; time window: 0-4 h after rhamnose induction", "description": "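In vivo DNA recorder in E. coli TOP10(DE3) ΔrhaA at 34 °C. Each TEVp single-site mutant (parent TEVp 0) is paired with a single-site variant of the 7-mer TEVs (canonical ENLYFQ|S). The substrate sits between flexible linkers in a Bxb1-sfGFP-TEVs-SsrA fusion, so cleavage stabilises Bxb1 and speeds flipping of a recombination array, read by NGS. The value is the raw area under the fraction-flipped curve over 0-4 h after rhamnose induction (AUC4h), with ≥20 reads per time point. It is not background-subtracted; inactive controls average about 0.047.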", "note": "Some of the results follow. Sequences were assembled here from the parent chain. Inactive controls read about 0.05.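 Note: Bxb1 expression induced with 0.2% (w/v) L-rhamnose at OD600 near 0.5, cultures sampled hourly, flipped fraction per protease–substrate barcode pair counted by paired-end Illumina sequencing.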", "data": [{"variant": "MGESLFKGPRDYNPISSSICHLTNESDGHTTSLYGIGFGPFIITNKHLFRRNNGTLVVQSLHGVFKYKDTTTLQQHLVDGRDMIIIRMPKDFPPFPQKLKFREPQREERICLVTTNFQTKSMSSMVSDTSCTFPSGDGIFWKHWIQTKDGQCGSPLVSTRDGFIVGIHSASNFTNTNNYFTSVPKNFMELLTNQEAQQWVSGWRLNADSVLWGGHKVFMVKPEEPFQPVKEATQL", "note": "[V67Y]", "values": [{"measurement": "area with substrate EALYFQS", "result": 0.0959}, {"measurement": "area with substrate ECLYFQS", "result": 0.0813}, {"measurement": "area with substrate EELYFQS", "result": 0.0823}, {"measurement": "area with substrate EKLYFQS", "result": 0.0648}, {"measurement": "area with substrate EMLYFQS", "result": 0.109}, {"measurement": "area with substrate EQLYFQS", "result": 0.081}, {"measurement": "area with substrate ESLYFQS", "result": 0.0594}, {"measurement": "area with substrate EVLYFQS", "result": 0.0911}, {"measurement": "area with substrate EWLYFQS", "result": 0.1}]}, {"variant": "MGESLFKGPRDYNPISSSICHLTNESDGHTTSLYGIGFGPFIITNKHLFRRNNGTLVVQSLHGVFKIKDTTTLQQHLVDGRDMIIIRMPKDFPPFPQKLKFREPQREERICLVTTNFQTKSMSSMVSDTSCTFPSGDGIFWKHWIQTKDGQCGSPLVSTRDGFIVGIHSASNFTNTNNYFTSVPKNFMELLTNQEAQQWVSGWRLNADSVLWGGHKVFMVKPEEPFQPVKEATQL", "note": "[V67I]", "values": [{"measurement": "area with substrate EALYFQS", "result": 0.13}, {"measurement": "area with substrate ECLYFQS", "result": 0.11}, {"measurement": "area with substrate EGLYFQS", "result": 0.0691}, {"measurement": "area with substrate EILYFQS", "result": 0.0795}, {"measurement": "area with substrate EKLYFQS", "result": 0.129}, {"measurement": "area with substrate EPLYFQS", "result": 0.144}, {"measurement": "area with substrate EQLYFQS", "result": 0.11}, {"measurement": "area with substrate ERLYFQS", "result": 0.0855}, {"measurement": "area with substrate EVLYFQS", "result": 0.0911}]}, {"variant": "MGESLFKGPRDYNPISSSICHLTNESDGHTTSLYGIGFGPFIITNKHLFRRNNGTLVVQSLHGVFKVPDTTTLQQHLVDGRDMIIIRMPKDFPPFPQKLKFREPQREERICLVTTNFQTKSMSSMVSDTSCTFPSGDGIFWKHWIQTKDGQCGSPLVSTRDGFIVGIHSASNFTNTNNYFTSVPKNFMELLTNQEAQQWVSGWRLNADSVLWGGHKVFMVKPEEPFQPVKEATQL", "note": "[K68P]", "values": [{"measurement": "area with substrate EALYFQS", "result": 0.145}, {"measurement": "area with substrate EFLYFQS", "result": 0.0798}, {"measurement": "area with substrate EGLYFQS", "result": 0.109}, {"measurement": "area with substrate EILYFQS", "result": 0.092}, {"measurement": "area with substrate EKLYFQS", "result": 0.0992}, {"measurement": "area with substrate ELLYFQS", "result": 0.0967}, {"measurement": "area with substrate EMLYFQS", "result": 0.13}, {"measurement": "area with substrate EQLYFQS", "result": 0.109}, {"measurement": "area with substrate ESLYFQS", "result": 0.111}, {"measurement": "area with substrate EVLYFQS", "result": 0.114}, {"measurement": "area with substrate EWLYFQS", "result": 0.102}]}, {"variant": "MGESLFKGPRDYNPISSSICHLTNESDGHTTSLYGIGFGPFIITNKHLFRRNNGTLVVQSLHGVFKVGDTTTLQQHLVDGRDMIIIRMPKDFPPFPQKLKFREPQREERICLVTTNFQTKSMSSMVSDTSCTFPSGDGIFWKHWIQTKDGQCGSPLVSTRDGFIVGIHSASNFTNTNNYFTSVPKNFMELLTNQEAQQWVSGWRLNADSVLWGGHKVFMVKPEEPFQPVKEATQL", "note": "[K68G]", "values": [{"measurement": "area with substrate EALYFQS", "result": 0.138}, {"measurement": "area with substrate EDLYFQS", "result": 0.116}, {"measurement": "area with substrate EELYFQS", "result": 0.125}, {"measurement": "area with substrate EGLYFQS", "result": 0.0851}, {"measurement": "area with substrate EILYFQS", "result": 0.1}, {"measurement": "area with substrate ELLYFQS", "result": 0.0816}, {"measurement": "area with substrate EMLYFQS", "result": 0.106}, {"measurement": "area with substrate EPLYFQS", "result": 0.124}, {"measurement": "area with substrate EQLYFQS", "result": 0.135}, {"measurement": "area with substrate ESLYFQS", "result": 0.107}, {"measurement": "area with substrate EVLYFQS", "result": 0.141}, {"measurement": "area with substrate EWLYFQS", "result": 0.0846}]}, {"variant": "MGESLFKGPRDYNPISSSICHLTNESDGHTTSLYGIGFGPFIITNKHLFRRNNGTLVVQSLHGVFNVKDTTTLQQHLVDGRDMIIIRMPKDFPPFPQKLKFREPQREERICLVTTNFQTKSMSSMVSDTSCTFPSGDGIFWKHWIQTKDGQCGSPLVSTRDGFIVGIHSASNFTNTNNYFTSVPKNFMELLTNQEAQQWVSGWRLNADSVLWGGHKVFMVKPEEPFQPVKEATQL", "note": "[K66N]", "values": [{"measurement": "area with substrate EALYFQS", "result": 0.115}, {"measurement": "area with substrate EELYFQS", "result": 0.0952}, {"measurement": "area with substrate EKLYFQS", "result": 0.0967}, {"measurement": "area with substrate EMLYFQS", "result": 0.116}, {"measurement": "area with substrate EQLYFQS", "result": 0.101}, {"measurement": "area with substrate ERLYFQS", "result": 0.0924}]}, {"variant": "MGESLFKGPRDYNPISSSICHLTNESDGHTTSLYGIGFGPFIITNKHLFRRNNGTLVVQSLHSVFKVKDTTTLQQHLVDGRDMIIIRMPKDFPPFPQKLKFREPQREERICLVTTNFQTKSMSSMVSDTSCTFPSGDGIFWKHWIQTKDGQCGSPLVSTRDGFIVGIHSASNFTNTNNYFTSVPKNFMELLTNQEAQQWVSGWRLNADSVLWGGHKVFMVKPEEPFQPVKEATQL", "note": "[G63S]", "values": [{"measurement": "area with substrate EALYFQS", "result": 0.0931}, {"measurement": "area with substrate EDLYFQS", "result": 0.111}, {"measurement": "area with substrate EHLYFQS", "result": 0.1}, {"measurement": "area with substrate EILYFQS", "result": 0.0816}, {"measurement": "area with substrate EKLYFQS", "result": 0.113}, {"measurement": "area with substrate ELLYFQS", "result": 0.0819}, {"measurement": "area with substrate EMLYFQS", "result": 0.107}, {"measurement": "area with substrate EQLYFQS", "result": 0.103}, {"measurement": "area with substrate ESLYFQS", "result": 0.108}, {"measurement": "area with substrate EVLYFQS", "result": 0.0594}, {"measurement": "area with substrate EWLYFQS", "result": 0.0779}, {"measurement": "area with substrate EYLYFQS", "result": 0.0956}]}, {"variant": "MGESLFKGPRDYNPISSSICHLTNESDGHTTSLYGIGFGPFIITNKHLFRRNNGTLVNQSLHGVFKVKDTTTLQQHLVDGRDMIIIRMPKDFPPFPQKLKFREPQREERICLVTTNFQTKSMSSMVSDTSCTFPSGDGIFWKHWIQTKDGQCGSPLVSTRDGFIVGIHSASNFTNTNNYFTSVPKNFMELLTNQEAQQWVSGWRLNADSVLWGGHKVFMVKPEEPFQPVKEATQL", "note": "[V58N]", "values": [{"measurement": "area with substrate EALYFQS", "result": 0.0909}, {"measurement": "area with substrate EGLYFQS", "result": 0.043}, {"measurement": "area with substrate EHLYFQS", "result": 0.0486}, {"measurement": "area with substrate ELLYFQS", "result": 0.0587}, {"measurement": "area with substrate ETLYFQS", "result": 0.0267}]}, {"variant": "MGESLFKGPRDYNPISSSICHLTNESDGHTTSLYGIGFGPFIITNKHLFRRNNGTLVHQSLHGVFKVKDTTTLQQHLVDGRDMIIIRMPKDFPPFPQKLKFREPQREERICLVTTNFQTKSMSSMVSDTSCTFPSGDGIFWKHWIQTKDGQCGSPLVSTRDGFIVGIHSASNFTNTNNYFTSVPKNFMELLTNQEAQQWVSGWRLNADSVLWGGHKVFMVKPEEPFQPVKEATQL", "note": "[V58H]", "values": [{"measurement": "area with substrate EALYFQS", "result": 0.0596}, {"measurement": "area with substrate EILYFQS", "result": 0.0321}, {"measurement": "area with substrate EKLYFQS", "result": 0.06}, {"measurement": "area with substrate EQLYFQS", "result": 0.0693}, {"measurement": "area with substrate ERLYFQS", "result": 0.0529}, {"measurement": "area with substrate ESLYFQS", "result": 0.0424}, {"measurement": "area with substrate ETLYFQS", "result": 0.0601}, {"measurement": "area with substrate EWLYFQS", "result": 0.0425}]}, {"variant": "MGESLFKGPRDYNPISSSICHLTNESDGHTTSLYGIGFGPFIITNKHLWRRNNGTLVVQSLHGVFKVKDTTTLQQHLVDGRDMIIIRMPKDFPPFPQKLKFREPQREERICLVTTNFQTKSMSSMVSDTSCTFPSGDGIFWKHWIQTKDGQCGSPLVSTRDGFIVGIHSASNFTNTNNYFTSVPKNFMELLTNQEAQQWVSGWRLNADSVLWGGHKVFMVKPEEPFQPVKEATQL", "note": "[F49W]", "values": [{"measurement": "area with substrate EALYFQS", "result": 0.0926}, {"measurement": "area with substrate ECLYFQS", "result": 0.0886}, {"measurement": "area with substrate EELYFQS", "result": 0.111}, {"measurement": "area with substrate EILYFQS", "result": 0.1}, {"measurement": "area with substrate EKLYFQS", "result": 0.117}, {"measurement": "area with substrate ELLYFQS", "result": 0.082}, {"measurement": "area with substrate EMLYFQS", "result": 0.093}, {"measurement": "area with substrate EPLYFQS", "result": 0.1}, {"measurement": "area with substrate EQLYFQS", "result": 0.103}, {"measurement": "area with substrate ERLYFQS", "result": 0.0773}, {"measurement": "area with substrate ESLYFQS", "result": 0.0961}, {"measurement": "area with substrate EVLYFQS", "result": 0.0951}, {"measurement": "area with substrate EWLYFQS", "result": 0.0819}]}, {"variant": "MGESLFKGPRDYNPISSSICHLTNESDGHTTSLYGIGFGPFIITNKHLFRRNNGTLVVDSLHGVFKVKDTTTLQQHLVDGRDMIIIRMPKDFPPFPQKLKFREPQREERICLVTTNFQTKSMSSMVSDTSCTFPSGDGIFWKHWIQTKDGQCGSPLVSTRDGFIVGIHSASNFTNTNNYFTSVPKNFMELLTNQEAQQWVSGWRLNADSVLWGGHKVFMVKPEEPFQPVKEATQL", "note": "[Q59D]", "values": [{"measurement": "area with substrate EALYFQS", "result": 0.13}, {"measurement": "area with substrate ECLYFQS", "result": 0.102}, {"measurement": "area with substrate EELYFQS", "result": 0.11}, {"measurement": "area with substrate EILYFQS", "result": 0.117}, {"measurement": "area with substrate ELLYFQS", "result": 0.0851}, {"measurement": "area with substrate ETLYFQS", "result": 0.108}]}, {"variant": "MGESLFKGPRDYNPISSSICHLTNESDGHTTSLYGIGFGPFIITNKHLFRRNNGTLVVLSLHGVFKVKDTTTLQQHLVDGRDMIIIRMPKDFPPFPQKLKFREPQREERICLVTTNFQTKSMSSMVSDTSCTFPSGDGIFWKHWIQTKDGQCGSPLVSTRDGFIVGIHSASNFTNTNNYFTSVPKNFMELLTNQEAQQWVSGWRLNADSVLWGGHKVFMVKPEEPFQPVKEATQL", "note": "[Q59L]", "values": [{"measurement": "area with substrate EALYFQS", "result": 0.138}, {"measurement": "area with substrate EDLYFQS", "result": 0.15}, {"measurement": "area with substrate EILYFQS", "result": 0.122}, {"measurement": "area with substrate EMLYFQS", "result": 0.114}, {"measurement": "area with substrate ESLYFQS", "result": 0.109}, {"measurement": "area with substrate ETLYFQS", "result": 0.112}]}]}
